The whole screen tested about 94,000 compounds, of which about 6,200 (6.6%) were called active. The shares of active, inactive and inconclusive entries below differ from those in the screen. Calls come from the whole dose curve; as a rule, active = well fitted inhibition curve with a large enough effect; inconclusive = small, poorly fitted or top-dose-only effect; inactive = flat fitted curve, though single readings scatter. Potencies of inconclusive entries are doubtful fits and often do not repeat.
experiment: Cytotoxic Profiling in HEK 293 Cell Line of Diverse Libraries Using Quantitative High-Throughput Screening; details: HEK 293 viability, ATP luminescence (CellTiter-Glo), 48-72 h; series mostly up to 115 µM; note: nearly all actives have a fitted effect of over 60% in size
Outline: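 HEK 293 cells at 250 cells/well were exposed to compounds by pintool transfer for 48 or 72 hr at 37 degree Celsius, 5% CO2. Viability was read as ATP-coupled luminescence with CellTiter-Glo after 10 min at room temperature.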
Potency is the fitted concentration of half-maximal effect; tags give direction and shape of the fitted curve.

| Compound | Potency |
| --- | --- |
| O=C(CC1CCOC2(CCN(Cc3cccc(F)c3)CC2)C1)NCc1ccncc1 (stereo not drawn) | inactive |
| CCN(CC)Cc1cnc2c(C(=O)NCCc3c[nH]c4ccccc34)cnn2c1 | inconclusive: 79.4 µM [inhibitor, single point] |
| O=C1CCN(S(=O)(=O)c2ccc3c(c2)CCC3)CCCC(c2nc(-c3cccnc3)no2)CCN1 (stereo not drawn) | active: 35.5 µM |
| CC(=O)N1CCC(C2CCN(Cc3ccccc3F)C2)CC1 (stereo not drawn) | inactive |
| CC(C)n1ccnc1CN1CCC(CNC(=O)C(C)(C)C)CC1 | inactive |
| CCCn1cnc2c1CN(S(=O)(=O)c1cccc3c(N(C)C)cccc13)[C@H](C(=O)OC)C2 | inconclusive: 79.4 µM [inhibitor, partial curve, poor fit] |
| COc1cccc(C(=O)N2CCC3(C2)NC(=O)N(Cc2ccc(Cl)cc2)C3=O)c1 (stereo not drawn) | inconclusive: 50.1 µM [inhibitor, partial curve, poor fit] |
| Cc1nn(-c2ccccc2)c2c1C(C)N(CC1CN([S+](=O)([O-])c3c(C)noc3C)C1)C2=O (stereo not drawn) | inconclusive: 50.1 µM [inhibitor, partial curve, poor fit] |
| COc1cccc(C(=O)NC2CCN(c3cnn(CC4CC4)c(=O)c3)CC2)c1 | inconclusive: 89.1 µM [inhibitor, single point] |
| CC(C)(N)C(=O)N1CCCC(N2CCN(c3cccc(Cl)c3)CC2)C1 (stereo not drawn) | inconclusive: 79.4 µM [inhibitor, partial curve, poor fit] |
| CN1C(=O)C2(CCN(Cc3ccccc3)C2)c2ccccc21 (stereo not drawn) | active: 100 µM |
| FC(F)(F)c1ccc(N2C3CCC2CN(Cc2ccc(Cl)cc2)C3)cc1 | inactive |
| CC(=O)N1CCNc2cc(-c3ccc(Oc4ccccc4)cc3)ncc2C1 | active: 70.8 µM |
| Cc1cnc(C(=O)NC2C[C@H]3CC[C@@H](C2)N3C(=O)CCC2CCCC2)cn1 (stereo partly drawn) | inconclusive: 35.5 µM [inhibitor, partial curve, poor fit] |
| Cc1noc(-c2ccc(OC3CN(C(=O)Nc4cccc(F)c4)C3)cc2)n1 | inconclusive: 50.1 µM [inhibitor, partial curve, poor fit] |
| Cc1ccc(-c2cccc(CN3CCCC3C(=O)NC(C)C)c2)cc1Cl (stereo not drawn) | active: 22.4 µM |
| CN1CC2(CCN(Cc3cn(C)c4ccccc34)CC2)CC1C(=O)N1CCOCC1 (stereo not drawn) | inconclusive: 89.1 µM [inhibitor, single point] |
| COc1ccc(C(=O)N2CCc3ccc(C(=O)NCc4ccc5c(c4)OCO5)cc32)cc1 | inconclusive: 44.7 µM [inhibitor, partial curve, poor fit] |
| O=C(O)CSCC(=O)N[C@H]1CO[C@H]2[C@@H]1OC[C@@H]2Nc1nccc(-c2cccc(F)c2)n1 | inactive |
| CCc1ccc(NC(=O)C2CCN(C(=O)c3ncn4c3COC(c3ccc(OC)cc3)C4)CC2)cc1 (stereo not drawn) | inconclusive: 89.1 µM [inhibitor, single point] |
| Cc1nc(N2CCC(NC(=O)C(C)Oc3ccccc3)CC2)cc(C(F)(F)F)n1 (stereo not drawn) | inconclusive: 79.4 µM [inhibitor, partial curve, poor fit] |
| CCNc1cc(N2CCC(CCC(=O)Nc3cccc(OC)c3)CC2)ncn1 | inconclusive: 89.1 µM [inhibitor, single point] |

| Compound | Potency |
| --- | --- |
| COc1ccccc1N1CCN([C@@H]2[C@H](O)[C@H](CO)O[C@@H]2CNC(C)C)CC1 | inactive |
| Cc1nnc2ccc(N3CCC(NC(=O)C4CCCC4)C3)nn12 (stereo not drawn) | inactive |
| Cn1cnc(S(=O)(=O)N2CCC(OCc3noc(C4CCCO4)n3)CC2)c1 (stereo not drawn) | inactive |
| O=C(NCc1cccc(F)c1)C1CCCN(c2nc3ncccc3o2)C1 (stereo not drawn) | inactive |
| COC(=O)c1cccc(NC(=O)CCNc2c(C)nc3cnccn23)c1 | inconclusive: 10 µM [inhibitor, full curve, poor fit] |
| Cn1cc2c3c(cccc31)CN(C(=O)Cc1ccc(Cl)cc1)CC2 | inconclusive: 79.4 µM [inhibitor, partial curve] |
| CC1(C(=O)O)CCN(C(=O)C2CCCC2)CC1 | inactive |
| CC1=C[C@@H](CNC(=O)Nc2ccc(Cl)cc2)[C@H](C(C)C)C[C@H]1CC(=O)N(C)Cc1cccnc1 | inconclusive: 50.1 µM [inhibitor, partial curve, poor fit] |
| Cc1ccc(C(=O)N[C@H]2CO[C@H]3[C@@H]2OC[C@@H]3Nc2nccc(C(C)(C)C)n2)cc1 | active: 63.1 µM |
| COc1ccc(-c2cc(N3CCC(NC(=O)c4ccc(Cl)cc4OC)CC3)n[nH]2)cc1 | inconclusive: 14.1 µM [inhibitor, partial curve, poor fit] |
| O=C(NCCN1CCOCC1)c1nc2sccn2c1-c1ccccc1 | inactive |
| CC(=O)NCC(=O)N1CCCn2cc(-c3ccc4c(c3)OCO4)nc21 | inconclusive: 100 µM [inhibitor, single point] |
| CN1C(=O)[C@H]2CN(Cc3c[nH]c4ccccc34)C[C@H]2C1=O | inactive |
| COc1ccc(CN2C(=O)[C@@H]3C[C@@H](CN3C3CCC3)Oc3ccccc32)cc1 | inconclusive: 100 µM [inhibitor, partial curve, poor fit] |
| O=C(CN1C(=O)NC(c2ccccc2Cl)C2=C1COC2=O)Nc1cccc(F)c1 (stereo not drawn) | inconclusive: 50.1 µM [inhibitor, partial curve, poor fit] |
| O=C1c2c(nc(COc3ccccc3)n2Cc2ccccc2)NCCN1Cc1cccc(Cl)c1 | active: 31.6 µM |
| COc1ccc2cc(C(=O)N3CCC(Cc4ccc(C(=O)NC5CC5)cc4)CC3)[nH]c2c1 | active: 35.5 µM |
| Cn1nc(C(=O)N2CCCN(S(=O)(=O)c3ccccc3)CCC(=O)NCC2)c2ccccc21 | inactive |
| Cc1nn(-c2ccccc2)c2c1C(C)N(C1CCN([S+](=O)([O-])c3c(C)noc3C)CC1)C2=O (stereo not drawn) | inactive |
| c1csc(-c2nc3nccc(-c4ccsc4)n3n2)c1 | inconclusive: 89.1 µM [inhibitor, partial curve, poor fit] |
| Cn1ncc(N2CCC(CNC(=O)c3cn(CCN)nn3)C2)cc1=O (stereo not drawn) | inactive |

Source: PubChem BioAssay AID1345083 (National Center for Advancing Translational Sciences (NCATS), 2018)
